# Article PMC4336329 (PLoS ONE, 2015)
# The whole screen tested about 310,000 compounds, of which about 2,200 (0.71%) showed an effect of 50% or more. The effect is printed as a negative number. This is one part of the list.
# Biological target: human ether-à-go-go-related gene (hERG) potassium channel (human, UniProt Q12809)
# Experiment: primary screen, population patch clamp on CHO cells stably expressing hERG
# Sequence of human ether-à-go-go-related gene (hERG) potassium channel (Q12809 whole entry, looked up): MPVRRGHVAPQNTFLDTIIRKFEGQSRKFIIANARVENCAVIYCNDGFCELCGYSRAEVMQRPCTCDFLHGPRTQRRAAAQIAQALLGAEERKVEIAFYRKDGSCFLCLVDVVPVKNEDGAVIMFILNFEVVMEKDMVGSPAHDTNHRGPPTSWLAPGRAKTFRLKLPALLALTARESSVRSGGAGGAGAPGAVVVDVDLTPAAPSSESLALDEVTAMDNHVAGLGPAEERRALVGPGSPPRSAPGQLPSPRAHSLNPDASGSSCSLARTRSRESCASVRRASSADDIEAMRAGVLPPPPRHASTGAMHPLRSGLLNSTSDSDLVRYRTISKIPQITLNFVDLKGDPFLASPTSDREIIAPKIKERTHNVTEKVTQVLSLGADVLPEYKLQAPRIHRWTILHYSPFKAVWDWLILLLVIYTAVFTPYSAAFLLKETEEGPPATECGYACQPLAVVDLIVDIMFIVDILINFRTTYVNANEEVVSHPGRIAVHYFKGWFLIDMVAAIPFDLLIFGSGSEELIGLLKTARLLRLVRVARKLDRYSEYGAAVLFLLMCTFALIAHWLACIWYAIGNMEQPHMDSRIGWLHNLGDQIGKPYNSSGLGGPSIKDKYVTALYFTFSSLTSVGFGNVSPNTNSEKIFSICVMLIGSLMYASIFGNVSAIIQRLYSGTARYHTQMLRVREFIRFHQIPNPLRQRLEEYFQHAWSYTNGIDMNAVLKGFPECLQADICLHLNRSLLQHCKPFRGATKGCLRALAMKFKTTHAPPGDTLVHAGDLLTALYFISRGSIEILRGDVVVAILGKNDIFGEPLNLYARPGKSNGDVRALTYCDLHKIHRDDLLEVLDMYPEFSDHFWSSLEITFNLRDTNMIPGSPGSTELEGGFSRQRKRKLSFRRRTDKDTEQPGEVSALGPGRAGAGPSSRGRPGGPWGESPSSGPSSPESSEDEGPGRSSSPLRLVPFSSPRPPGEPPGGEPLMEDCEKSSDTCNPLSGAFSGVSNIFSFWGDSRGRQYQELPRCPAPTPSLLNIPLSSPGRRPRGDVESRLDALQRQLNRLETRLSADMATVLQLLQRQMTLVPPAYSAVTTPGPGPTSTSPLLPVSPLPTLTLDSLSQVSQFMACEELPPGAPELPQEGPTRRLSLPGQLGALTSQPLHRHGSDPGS
row,Structure (SMILES),"hERG current change (%, negative = inhibition) at 1uM [%]"
1,Cc1cc(NS(=O)(=O)c2ccccc2)cc(Cl)c1O,0.687
2,CCOC(=O)N1CCN(C(=O)CCn2c(=S)[nH]c3cc(OCC)c(OCC)cc3c2=O)CC1,1.19
3,Cc1c(Br)c([N+](=O)[O-])nn1CC(=O)Nc1c(C)n(C)n(-c2ccccc2)c1=O,12.3
4,CCOc1cc(C(c2c(C)[nH][nH]c2=O)c2c(C)[nH][nH]c2=O)ccc1OC(=O)c1cccc([N+](=O)[O-])c1,-8.03
5,O=C(CCNC(=O)c1ccc(Cl)cc1)Nc1ccccc1Cl,11
6,Cc1cc(C)c(OCCN(C)Cc2ccccc2)c(Br)c1,14
7,COc1ccccc1-c1nc(-c2ccc(C(=O)O)cc2)no1,15.5
8,CCOc1ccc(Oc2ccc(-c3nnc(-c4ccccc4)o3)cc2[N+](=O)[O-])cc1,10.1
9,CNC(=O)CC12CC3CC(CC(C3)C1)C2,8.07
10,Cc1ccc(OCC(=O)N2CCN(C(=O)c3cccnc3)CC2)cc1,-2.21
11,Cc1ccccc1-n1nc2c(c1NC(=O)c1ccc(S(=O)(=O)N(C)C)cc1)CSC2,15.4
12,Cc1ccc(S(=O)(=O)N2CCN(C(=S)NCCc3ccccc3)CC2)cc1,7.08
13,O=C1CCCS(=O)(=O)c2ccccc21,2.81
14,CCNC(=S)NNC(=O)c1cc(-c2cccc(OC)c2)nc2ccccc12,8.11
15,COCCCNC(=O)C1CCC(CNS(=O)(=O)c2ccc3c(c2)N(C(C)=O)CCO3)CC1 (stereo not shown),2.67
16,CCN1CCCC1CNC(=O)c1cc(NC(C)=O)c(N(C)C)cc1OC (stereo not shown),18.8
17,COc1ccc(C2/C(=C(\O)c3ccc4c(c3)OCCO4)C(=O)C(=O)N2Cc2cccnc2)cc1 (stereo not shown),16.8
18,CN(C)C(=O)c1ccc(NC(=O)COC(=O)C2=COCCO2)cc1,15
19,CCOC(=O)c1nn(-c2ccccc2C)c2nc(CC(C)C)c(C#N)c(=O)n12,15.8
20,CCn1c(NC(=O)C(C)C)c(-c2ccccc2)c(=O)c2ccccc21,3.91

row,Structure (SMILES),"hERG current change (%, negative = inhibition) at 1uM [%]"
1,O=C(O)COc1cccc2ccccc12,-1.41
2,NC(=S)N/N=C/c1coc2cc(Br)ccc2c1=O,15.1
3,S=C(Nc1ccccc1)Nc1ccc(Cl)cc1Cl,16.5
4,COc1ccc(N2CCC(CNC(=O)Nc3ccc(OC)cc3OC)C2)cc1 (stereo not shown),11.5
5,CCn1c(=O)c(-c2ccccc2)c(O)c2ccccc21,7.88
6,CC1(C)NC(=O)N(CC(O)COC2CCCCC2)C1=O (stereo not shown),6.03
7,COc1ccccc1C(=O)OCc1c(F)cccc1Cl,8.76
8,Cn1c(=O)c2c(ncn2CC(=O)Nc2ccccc2)n(C)c1=O,8.18
9,CCC1(c2ccccc2)NC(=O)N(CC#N)C1=O (stereo not shown),18
10,COc1ccc2sc(-c3ccc(N(C)C)cc3)c(C#CCCO)c2c1,17.8
11,COc1ccc(/C=N/NC(=O)CNC(=O)c2ccncc2)cc1,14.8
12,Cc1ccc(-c2cc(C(=O)NCc3ccccn3)c3ccccc3n2)cc1,2.69
13,CC1CCN(c2c(NCC3CCC(C(=O)N4CCCCC4)CC3)c(=O)c2=O)CC1 (stereo not shown),17.7
14,Cc1cc(-c2ccc(C(=O)O)s2)cnc1N,-2.15
15,Cc1sc2nc(C3CCCCC3)nc(SCC(=O)N3CC(=O)Nc4ccccc43)c2c1C,39.7
16,O=C(CN(C(=O)c1ccc(Cl)cc1)C1CCCCC1)Nc1ccc(Cl)c([N+](=O)[O-])c1,3.68
17,c1ccc(Cc2nnc(N3CCOCC3)c3ccccc23)cc1,5.45
18,CC(C)c1cc(Br)c(NC(=O)Nc2cccnc2)c(Br)c1,15.7
19,CCn1cc(C(=O)N[C@@H](CCSC)C(=O)NCCCOC)c(=O)c2cc3c(cc21)OCO3,16.9
20,CC(=O)NS(=O)(=O)c1ccc(NC(=O)c2cccc(OCc3c(C)noc3C)c2)cc1,5.78

row,Structure (SMILES),"hERG current change (%, negative = inhibition) at 1uM [%]"
1,Cc1cccc(C)c1NC(=O)COC(=O)C1CC1,8.49
2,COc1ccc(S(=O)(=O)CC(=O)c2cc3cccc(C)c3oc2=O)cc1,12.7
3,CC(=O)C1C(c2ccc(Br)cc2)C2C(C)=NN=C2CC1(C)O (stereo not shown),9.68
4,Cc1nc(C)n(C(C)CNC(=O)c2ccccc2)n1 (stereo not shown),13.8
5,COc1ccc(S(=O)(=O)N(C)C)cc1NC(=O)COC(=O)c1nn(C)c(=O)c2ccccc12,6.18
6,C=CCc1cccc(/C=N/c2ncn[nH]2)c1O,3.09
7,c1ccc(-c2nn3c(C4CCCCC4)nnc3s2)nc1,11
8,Cc1cc(C)cc(-n2ccnc2SCC(=O)O)c1,5.33
9,CC(=O)NCCOC(=O)c1nn(Cc2ccccc2)c(=O)c2ccccc12,5.29
10,COc1cc(NC2c3ccccc3C(=O)N2Cc2ccccc2Cl)cc(OC)c1OC (stereo not shown),2.33
11,CCC1CCCCN1C(=O)CCNC(=O)Cn1cnc2ccccc2c1=O (stereo not shown),16.5
12,COc1ccccc1CNS(=O)(=O)CC12CCC(CC1=O)C2(C)C (stereo not shown),6.62
13,O=C(Nc1ccc([N+](=O)[O-])cc1Br)c1cccnc1,2.74
14,COc1ccc(S(=O)(=O)/N=C2/NC(=O)/C(=C/c3ccco3)S2)cc1,12.5
15,COC(=O)c1ccccc1NC(=O)Cc1nc(-c2ccccc2)sc1-c1ccc(C)cc1,-2.02
16,CCOC(=O)c1c(C)[nH]c(C(=O)COC(=O)c2ccncc2)c1C,4.1
17,CC(=O)c1c(C)cc(C)c(CSc2nc(C)cc(=O)[nH]2)c1C,6.99
18,CC(C)Oc1cccc(C(=O)NC(=S)Nc2cccc(C(F)(F)F)c2)c1,10.4
